# Read counts are not given, so values of variants with three or more changes are uncertain.
# B1: LINE1-full (parent)
# chain: UACGUAGGUGGUUUUCCCCUGAUAGUGCUAAGGGGGCCUGGAAGUUUGGACUGGGCAGAGCUCAACACAGCGUGGCAAAGUGGCUGUGGCUAGACUGCCUCUCUGGAUUCCUCGUCACUCAGCAGGGCAUCUCUGAGAGAAAUGCC
# Variants of: B1
# Assay: self-cleavage, relative activity (ratio to wild type); higher = more cleavage; in vitro, sequencing; the parent is a self-cleaving ribozyme
row,Variant,self-cleavage
1,U26A U39A U115C,0.71
2,U26C U73G C133A,1.81
3,U26C U47G A79G,1.01
4,G25C A64U U73C,0.56
5,U26C A77U A140G,1.59
6,A24U U39A A42G A77U,0.99
7,U26C U52C U115A,0.74
8,U26C A43U U62C G105A,0.1
9,G25U A31G G53A U85A U102A,0.07
10,U26C A57G U96C A117U,0
11,U26C A69G U73A G74A,0.74
12,A24G G75A A107G,1.43
13,U26A A57G G74A A124U,0.38
14,U26C G32A U46C A64U A77G U115A,1.04
15,A24U U45A A129U U134G A141G,1.99
16,A24U U73C A107G G144A,1.38
17,A24U U45G U46C U85A,0.08
18,A24U U81C U104A A141U A142U,1.25
19,G25U U47A A77G A78G,1.88
20,A24G U46C A138G A140G,1.41
21,C28A U45C U91C A129U U130C,0.71
22,A24G U87C U130C,0.33
23,A24G U91C A142G,1.41
24,U26G A69G U130C,0.88

row,Variant,self-cleavage
1,U26A U46C U81A,1.89
2,U26C A31G A59G,0
3,C28A U109C U112A,0.88
4,U26C U45A G80A,1.39
5,U26C U29C C98G,0.09
6,G27A G72C U112A A142G,1.48
7,A24U U115C U134G,2.16
8,G25C A64G U87C,0
9,U26C A43G A69U C99A,0.07
10,U26C A65G A136G,0.12
11,G27A U39A U45C U115C,1.19
12,A24U U47C U62C A94G A142G,0
13,U26C U45C A107U,1.91
14,U26C A57G U96C,1.53
15,U26C A78G U87A U108C,0.17
16,A24G U73A G88A A94G,0.05
17,G25A U104C A129G,0.77
18,U26C U85A A136U,0.12
19,U26C U45G G72U U132C,2.25
20,G25A U52A U134A,1.09
21,U26G C113A A138G,1.28
22,U26A A107U A141G,1.24
23,U26A A57G U85A,0.08
24,U26A A57G A79G,0

row,Variant,self-cleavage
1,G27A G53C U85A U112C,0.07
2,A24U A43G G82A,1.15
3,U26C G49C G55C A141G,0
4,A24G G74A U100C,1.61
5,A24G U29A A138G,0.97
6,U26C G36A A124C,1.09
7,A24G U47C U100C,0.46
8,U26A U47C C76U U85A,0.11
9,U26C U47C A117C,0.71
10,G27A U39A U62C U85C U109G,0
11,U26A A124U A129G,1.48
12,A24G U47G A117U U119C,1.02
13,G27U A42U A129G,0.7
14,U26A G58U U73A,0.07
15,G25A G32A A78G U109C,0.67
16,G25A U102C U115A U130A,1.36
17,G25A U119C A138C,1.09
18,A24G U45G A124G,0.63
19,A24U U46A A50G U119A A124U U134C,1.19
20,G27A A31U A136G,1.15
21,U26C U52C A64U G72A U119C C123U,0.4
22,A24U U112C A124C,1.2
23,G27A C37U U39G U104C A140G,1.11
24,G25C C71G A92G A129G A142G,0.1

row,Variant,self-cleavage
1,U26C U87A A92G A141G,0.07
2,U26C A43G A138U,0.93
3,A24U A129G A141G,1.25
4,A24G U45C A136G,0.61
5,U26A U62A U96C,0
6,U26A U81A G126A A138U,1.3
7,U26G U81A U115C,2.3
8,U26A U102G A142G,0.21
9,A24U U46C U85C U119C A136G,0.57
10,A24G U26G G32A A79G,0.75
11,U26C U29C G36A G74A A78G A129C,1.1
12,U26C U46C G137U,0.97
13,U26C A57G A79G,0.54
14,U26A U29C U47A C68U,0.19
15,A24G G74A U87G,0.14
16,G27A U62A A77U,0.02
17,A24G U26C C113A,1.09
18,G25A A43U A117G C128A,0.42
19,C28A C98A G127A,0.1
20,C28A U39C U47A U100C,1.89
21,U26A A42G U52A,0.9
22,U26C G41A A57U,0.11
23,A24G U85C A124C,0
24,U26C C61G A117G,0

row,Variant,self-cleavage
1,U26C A69U A77U A78G U81C U87A,0.16
2,A24G U45C G83A U108C,0.51
3,G25A A42G U143C,1.23
4,U26C U45A U108C,1.67
5,A24G U26C A69G,0
6,U26C G40A U47C A64C C66U A117U,0
7,U26C A42G U109C A142G,1.62
8,U26G A59C U62C A77U C90A,0.07
9,U26C A30U U85C A129G,0.63
10,A24U U47A A57G U143C,0.33
11,U26A U87A A129U U130C,0
12,U26C G34C G58A,0.1
13,U26A A69G U108C,0
14,A24G U100C U109A,1.02
15,U26C A64U A94G,0
16,U26A U112C A121U,1.18
17,U26A G105A A124G A136G,0.81
18,U26A U62C A64G U102A U132C,0
19,U26A U87C U104C U112A,0
20,U26C U29C U47A A94G U119A,0
21,U26C U39A U100C,2.45
22,C28G A42G A79G A138U U143G,0.78
23,U26C A67C G72A A78G A136G,0.01
24,A24U C37U C84U,0.05

row,Variant,self-cleavage
1,U26A A77U A138G G144A,1.17
2,U26C U39C A129G A141G,0.59
3,A24U A50U G53A,0.63
4,U26C C37U U73C A142U,0.59
5,U26A A64G U100C,0.84
6,A24G U46C U47C A129G U143C,2.3
7,U26C A77U U85G,0.04
8,U26C A42U A141G,0.86
9,A24G G35A G53A,0.75
10,A24U U52A U132C,2.46
11,G27U A42G A78U A79G,2.33
12,U26A A42G U85C,0
13,U26C G40A A69G U73C,0.78
14,U26C G49A A57G U62C U85A A121G,0.11
15,A24G U47A U102A A124G,1.53
16,U26A U102C U119A,1.37
17,U26A A50G A107U,0.92
18,U26A U45C A57G,1.31
19,U26C A64G U132C,0.41
20,A24U A43G A78G C113A,0.9
21,U26C A69G G75A A77U,0.6
22,A24G G70A A77C U81C A94G,1.31
23,U26A U73A A124C,1.27
24,A24G U39C U134A,0

row,Variant,self-cleavage
1,U26A A69U A141G,0.03
2,U26C U52A U96G,0.27
3,U26A U52A U91C U100C U132C,0.88
4,U26G G53U C76U A77C,1.2
5,U26C A59G G126A U130C,0.12
6,U26G U134A A141G,1.14
7,G25A A43G U52A U100C,1.65
8,G27A U29C A78G U134C,0.32
9,U26C G36C A92G A136G,0.09
10,A24U A50U U108C,1.53
11,U26C U52A U115A A141U A142G,1.07
12,A24G U46C A117G,1.11
13,U26C C66U U109C,0.06
14,A24G U52A A57U A77U U130C,0.43
15,G25A U39A U62A U85A,0.01
16,U26C A69U U87A U96C U119C,0
17,G25U A78G A94G,0.2
18,U26A U39C A64C A65U U115C U134C,0
19,U26C A78G U91C,0.57
20,U26A U52C C76U A124G,0.63
21,G27U U47A A77G U112A,2.63
22,U26C U96C C120U,0.09
23,U26C U130C U132C A142G,2.16

# Reference: the RNAGym collection of RNA variant scans (doi:10.7554/elife.90254)
